B1: 4493429_4493795_1021_CDS_ENSMUSG00000004961_ENSMUST00000065957|mouse|control|control (ssRNA)
RNA: GGGAGUUCUACAGUCCGACGAUCUGAGAGUCCUCCUACAUCCAUUUUCUUCAGGUUUUUAGCUUCCAAGACAAUGACGGUGAGCUUCCCGGCCGUGGGGACAUAACGGAGAGAGAAGCAGAUGUCCCCCAGUUUCUCUUGCUCCAACAGAGGAUUGAGCAUCA
B2: chr6:349326:349327:+_ENSG00000112679_ENST00000419235|hu_hu|FALSE|FALSE (ssRNA)
RNA: GGGAGUUCUACAGUCCGACGAUCAUGAAUUCUGUGACUUCCAGCAGUAAGAAAGAGUUCACACACACACAAACAUUCAUGUGCACAGACACUUUCACAACAUACACACAUGUACACACUUAGGUGCACAUACCCUCACUCACACAACAGAGGAUUGAGCAUCA
B3: chr1:163112212:163112213:-_ENSG00000143248_ENST00000313961|hu_hu|hu_hu_hu_mus_False|48_58 (ssRNA)
RNA: GGGAGUUCUACAGUCCGACGAUCUUUUAUUAUCAGUAAGAGUGAGUUACAUACUAGGCAAAGUAUUGGAUACAAUAUUCUAAAGAUAAACACAAUUGGUCCAGAAUUUAAAACUUUAUGAGCGAAGUGCUGGCACAGGACUUACAACAGAGGAUUGAGCAUCA
B4: chr4:57314706:57314707:+_ENSG00000128050_ENST00000264221|hu_mus|hu_hu_hu_mus_True|58_78 (ssRNA)
RNA: GGGAGUUCUACAGUCCGACGAUCCAGAAUUUCAAAAAUAGCUUGUGUGGCAUGACUCAUGAUAUCCACUUCAGUCUGGCCUAUAAGAAGGCCAGCAAAACAGAAUUUUGCAGCAAUGAGUUGCUCCUCAGACCACUGUGGAUCCAACAGAGGAUUGAGCAUCA
B5: chr16:94664741:94664742:+_ENSMUSG00000040785_ENSMUST00000117648|mus_hu|mus_mus_mus_hu_False|8_28 (ssRNA)
RNA: GGGAGUUCUACAGUCCGACGAUCUGGUACUGAUCUUGGUAGCUGAUAUUCAGGAGAAAGGCUGGCCAAGGGUGUAUAUAUGCUGGUGUACUGGGGCAAACCUGGUACCAUGUUAAUGUAUGCUGGCCGCUGGGUGAUGAUAUCCAACAGAGGAUUGAGCAUCA
B6: chr17:38556828:38556829:-_ENSG00000131747_ENST00000423485|hu_mus|FALSE|FALSE (ssRNA)
RNA: GGGAGUUCUACAGUCCGACGAUCAGUCCACGUUCGGAUGGGAAGCUCUGAGAUUUCAAUGGUUGUAGAAUCCAGAAUAGCUACUUCUCCAUUAAUCACAUACUGAUUUGAAGCCAGUUCUUCAAUAGUACCUUUGAAAUUCUUCAACAGAGGAUUGAGCAUCA

Some of the results follow.

In this assay the target is T1, UNK ZnF1-3 (human, UniProt Q9C0B0 31-174).
T1 sequence: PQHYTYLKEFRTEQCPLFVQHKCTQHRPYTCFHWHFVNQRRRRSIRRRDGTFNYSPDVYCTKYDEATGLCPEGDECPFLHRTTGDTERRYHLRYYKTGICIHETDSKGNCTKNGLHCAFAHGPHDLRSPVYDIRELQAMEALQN
Nature of the assay: nsRBNS (natural sequence RNA bind-n-seq); RBNS binding buffer (assumed for nsRBNS): 25 mM Tris pH 7.5, 150 mM KCl, 3 mM MgCl2, 0.01% Triton X-100, 500 ug/ml BSA, 20 U/ml SUPERase-In, 4 C; UNK is unkempt and MSI1 is Musashi-1; names of the RNAs are library labels; protein concentration not given here; high values mean tight binding.
With B1, the binding signal came out at 0.696 enrichment R.

In turn, B2 had a binding signal of 0.845 enrichment R.

In turn, B3 gave a binding signal of 1.28 enrichment R.

For B4, the binding signal was 0.963 enrichment R.

Molecule B5 showed a binding signal of 0.844 enrichment R.

As for B6, the binding signal is 1.07 enrichment R.
